About 110 (3.4%) of roughly 3,200 compounds showed an effect of 50% or more. Some of the results follow.
system: T1, V. cholerae SAD30; parameters: species or system S. aureus MSSA476 (TSB) or V. cholerae SAD30 (LB); 384-well bacterial growth screen at 25 uM, OD600 relative to DMSO control; settings: relative growth, OD600, LB; 25 µM; inhibitor
T1 construct: SAD30

Structure (SMILES)	% of control remaining
O=C(CCl)N(Cc1ccc(Cl)c([N+](=O)[O-])c1)c1ccccc1 [6-H06, 2-chloro-N-[(4-chloro-3-nitrophenyl)methyl]-N-phenylacetamide]	93.4307%
C=CC(=O)Nc1cccc2ccccc12 [1-G10, N-(naphthalen-1-yl)prop-2-enamide]	85.7997%
Cc1ccc(-n2c(C)cc(C(=O)CCl)c2C)cc1F [10-C06, 2-chloro-1-[1-(3-fluoro-4-methylphenyl)-2,5-dimethyl-1H-pyrrol-3-yl]ethan-1-one]	94.9153%
Cc1ccc(C(CNC(=O)C(C)Cl)N2CCOCC2)s1 (stereo not drawn) [7-N13, 2-chloro-N-[2-(5-methylthiophen-2-yl)-2-(morpholin-4-yl)ethyl]propanamide]	78.6387%
COc1cc(C=C(C#N)C(=O)Nc2ccc3c(c2)OCCO3)ccc1O [8-N06, 2-cyano-N-(2,3-dihydro-1,4-benzodioxin-6-yl)-3-(4-hydroxy-3-methoxyphenyl)prop-2-enamide]	70.9041%
CC(Cl)C(=O)Nc1cccc(Cl)c1 (stereo not drawn) [5-H22, 2-chloro-N-(3-chlorophenyl)propanamide]	106.42%
COc1ccc(C(C)(C)C)cc1NC(=O)CCl [4-C07, N-(5-tert-butyl-2-methoxyphenyl)-2-chloroacetamide]	98.3394%
CCC1CN(CCn2cccn2)CCN1C(=O)C(C)Cl (stereo not drawn) [7-F07, 2-chloro-1-{2-ethyl-4-[2-(1H-pyrazol-1-yl)ethyl]piperazin-1-yl}propan-1-one]	83.1323%
C=CC(=O)N1CC(S(=O)(=O)N2CCOCC2)C1 [2-A16, 1-[3-(morpholine-4-sulfonyl)azetidin-1-yl]prop-2-en-1-one]	94.0558%
C=CC(=O)N1CCC(Cc2nc3ccc(F)cc3o2)CC1 [3-O07, 1-{4-[(6-fluoro-1,3-benzoxazol-2-yl)methyl]piperidin-1-yl}prop-2-en-1-one]	99.1472%
Cc1nn(C)c(C)c1NC(=O)C(C)Cl (stereo not drawn) [6-C07, 2-chloro-N-(1,3,5-trimethyl-1H-pyrazol-4-yl)propanamide]	93.279%
N#CC(=Cc1cccc(Cl)c1)C(=O)NCc1ccccc1 [9-L13, N-benzyl-3-(3-chlorophenyl)-2-cyanoprop-2-enamide]	62.7464%
N#CC(=Cc1cnc(-c2ccccc2)nc1)C(=O)NCc1ccco1 [9-M14, 2-cyano-N-[(furan-2-yl)methyl]-3-(2-phenylpyrimidin-5-yl)prop-2-enamide]	95.2413%
C=CC(=O)N(C)CC(=O)NC1CCCN(c2cc(C)nc(C)n2)C1 (stereo not drawn) [3-A12, N-({[1-(2,6-dimethylpyrimidin-4-yl)piperidin-3-yl]carbamoyl}methyl)-N-methylprop-2-enamide]	113.968%
C=CC(=O)N1CCC(C(=O)NCc2ccccc2-n2cccn2)CC1 [3-N03, 1-(prop-2-enoyl)-N-{[2-(1H-pyrazol-1-yl)phenyl]methyl}piperidine-4-carboxamide]	103.382%
C=CC(=O)NCc1ccsc1-n1cccc1 [1-K08, N-{[2-(1H-pyrrol-1-yl)thiophen-3-yl]methyl}prop-2-enamide]	82.9596%
C=CC(=O)N1CCC(CC(C)(C)C)C1 (stereo not drawn) [2-O19, 1-[3-(2,2-dimethylpropyl)pyrrolidin-1-yl]prop-2-en-1-one]	86.6448%
CC(Cl)C(=O)Nc1ccccc1C#N (stereo not drawn) [6-A11, 2-chloro-N-(2-cyanophenyl)propanamide]	96.0091%
CC(Cl)C(=O)Nc1cccc(S(=O)(=O)N(C)C)c1 (stereo not drawn) [5-A07, 2-chloro-N-[3-(dimethylsulfamoyl)phenyl]propanamide]	104.403%
CN(CC(=O)Nc1ccc(Cl)c(C(F)(F)F)c1)C(=O)CCl [4-E19, 2-chloro-N-({[4-chloro-3-(trifluoromethyl)phenyl]carbamoyl}methyl)-N-methylacetamide]	95.234%
C=CC(=O)Nc1ccc(N2CCCCC2)c(F)c1 [2-I22, N-[3-fluoro-4-(piperidin-1-yl)phenyl]prop-2-enamide]	107.025%
CN(CC(=O)NC1CCC(O)CC1)C(=O)CCl (stereo not drawn) [7-L08, 2-chloro-N-{[(4-hydroxycyclohexyl)carbamoyl]methyl}-N-methylacetamide]	83.2645%
O=C(CCl)Nc1cccc(NC(=O)c2ccccc2)c1 [6-A03, N-[3-(2-chloroacetamido)phenyl]benzamide]	105.565%

Structure (SMILES)	% of control remaining
N#CC(=Cc1ccsc1)C(=O)Nc1ccccc1Cl [9-O05, N-(2-chlorophenyl)-2-cyano-3-(thiophen-3-yl)prop-2-enamide]	98.9123%
Cc1nn(C)c(C)c1C=C(C#N)C(=O)Nc1ccccc1Cl [9-F11, N-(2-chlorophenyl)-2-cyano-3-(1,3,5-trimethyl-1H-pyrazol-4-yl)prop-2-enamide]	85.9959%
CC(Cl)C(=O)N(C)C[C@@H]1C[C@H](F)CN1c1ccnc(N(C)C)n1 (stereo partly drawn) [7-K16, 2-chloro-N-{[(2S,4S)-1-[2-(dimethylamino)pyrimidin-4-yl]-4-fluoropyrrolidin-2-yl]methyl}-N-methylpropanamide]	71.1052%
O=C(CCl)N(Cc1ccco1)c1ccccc1 [4-L14, 2-chloro-N-[(furan-2-yl)methyl]-N-phenylacetamide]	102.998%
C=CC(=O)N(C)CC(=O)N1CCN(C(=O)C2CCCCC2)CC1 [3-O10, N-[2-(4-cyclohexanecarbonylpiperazin-1-yl)-2-oxoethyl]-N-methylprop-2-enamide]	102.323%
C=CC(=O)N1CCC(C(=O)Nc2ccc3c(c2)CCN3C(N)=O)CC1 [3-E16, 5-[1-(prop-2-enoyl)piperidine-4-amido]-2,3-dihydro-1H-indole-1-carboxamide]	90.5017%
O=C(CCl)N(Cc1ccccc1)Cc1ccco1 [5-F22, N-benzyl-2-chloro-N-[(furan-2-yl)methyl]acetamide]	104.066%
C=CC(=O)N(Cc1cn(C)nc1CC)C1CCCCCC1 [1-H09, N-cycloheptyl-N-[(3-ethyl-1-methyl-1H-pyrazol-4-yl)methyl]prop-2-enamide]	81.0164%
C=CC(=O)N(C)CC(=O)N1CCC(CN2CCCCC2=O)CC1 [2-F16, N-methyl-N-(2-oxo-2-{4-[(2-oxopiperidin-1-yl)methyl]piperidin-1-yl}ethyl)prop-2-enamide]	88.6519%
O=C1C=CC(=O)N1CCc1ccc(F)cc1 [10-C21, 1-[2-(4-fluorophenyl)ethyl]-2,5-dihydro-1H-pyrrole-2,5-dione]	34.7555%
CC(Cl)C(=O)N1CCc2c(nnn2C)C1 (stereo not drawn) [7-G22, 2-chloro-1-{1-methyl-1H,4H,5H,6H,7H-[1,2,3]triazolo[4,5-c]pyridin-5-yl}propan-1-one]	90.1371%
O=C(CCl)Nc1ccc(Cl)cc1F [4-E03, 2-chloro-N-(4-chloro-2-fluorophenyl)acetamide]	111.279%
O=C(CCl)N1CCC(C2CCCN(C(=O)C(F)(F)F)C2)CC1 (stereo not drawn) [5-E20, 1-[1'-(2-chloroacetyl)-[3,4'-bipiperidin]-1-yl]-2,2,2-trifluoroethan-1-one]	100.2%
CSc1ccc(C=C(C#N)C(=O)Nc2cccc(Cl)c2C)cc1 [8-N11, N-(3-chloro-2-methylphenyl)-2-cyano-3-[4-(methylsulfanyl)phenyl]prop-2-enamide]	71.7199%
CC1CC(C)CN(S(=O)(=O)c2ccc(NC(=O)CCl)cc2)C1 (stereo not drawn) [4-K16, 2-chloro-N-{4-[(3,5-dimethylpiperidin-1-yl)sulfonyl]phenyl}acetamide]	100.237%
CC(c1ccc(C(F)(F)F)c(Cl)c1)N(C)C(=O)CCl (stereo not drawn) [7-F14, 2-chloro-N-{1-[3-chloro-4-(trifluoromethyl)phenyl]ethyl}-N-methylacetamide]	73.8807%
CC(Cl)C(=O)Nc1ccccc1[N+](=O)[O-] (stereo not drawn) [4-G18, 2-chloro-N-(2-nitrophenyl)propanamide]	96.0966%
N#CC(=Cc1cccc(Cl)c1Cl)C(=O)NCc1ccco1 [8-P04, 2-cyano-3-(2,3-dichlorophenyl)-N-[(furan-2-yl)methyl]prop-2-enamide]	76.0707%
CCN(C(=O)C(C)Cl)c1ccccc1 (stereo not drawn) [4-P16, 2-chloro-N-ethyl-N-phenylpropanamide]	121.63%
N#CC(=Cc1cccc(O)c1)C(=O)Nc1ccc(N2CCOCC2)cc1 [8-I14, 2-cyano-3-(3-hydroxyphenyl)-N-[4-(morpholin-4-yl)phenyl]prop-2-enamide]	71.0401%
CN(C)S(=O)(=O)c1ccc(NC(=O)CCl)cc1 [5-J11, 2-chloro-N-[4-(dimethylsulfamoyl)phenyl]acetamide]	99.359%
CC(C)C(NC(=O)CCl)c1ccc2c(c1)OCCCO2 (stereo not drawn) [4-N14, 2-chloro-N-[1-(3,4-dihydro-2H-1,5-benzodioxepin-7-yl)-2-methylpropyl]acetamide]	102.998%
